The text below walks through data of patent publication US8992932B2 (Seattle Genetics, Inc., dated 2015).

First the molecules themselves.
T1: C4.4a on A549 cells transfected with the sequence for the complete C4.4a receptor (Homo sapiens)
T1 chain: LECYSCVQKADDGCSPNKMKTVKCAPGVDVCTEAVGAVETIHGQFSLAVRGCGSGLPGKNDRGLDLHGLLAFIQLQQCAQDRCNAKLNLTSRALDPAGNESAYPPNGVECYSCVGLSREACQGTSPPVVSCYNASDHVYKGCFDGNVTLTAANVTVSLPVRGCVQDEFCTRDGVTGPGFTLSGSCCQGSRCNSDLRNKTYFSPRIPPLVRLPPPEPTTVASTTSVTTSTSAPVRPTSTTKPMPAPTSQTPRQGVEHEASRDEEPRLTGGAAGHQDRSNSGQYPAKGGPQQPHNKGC

B1: ADC of Example 26 (antibody)
heavy: QVELLESGGGLVQPGGSLRLSCAASGFTFSNAWMSWVRQAPGKGLEWVSYISSSGSTIYYADSVKGRFTISRDNSKNTLYLQMNSLRAEDTAVYYCAREGLWAFDYWGQGTLVTVSS[in this place human IgG1 constant region]
light: DIVLTQPPSASGTPGQRVTISCTGSSSNIGAGYVVHWYQQLPGTAPKLLIYDNNKRPSGVPDRFSGSKSGTSASLAISGLRSEDEADYYCAAWDDRLNGPVFGGGTKLTVLGQPKAAPSVTLFPPSSEELQANKATLVCLISDFYPGAVTVAWKGDSSPVKAGVETTTPSKQSNNKYAASSYLSLTPEQWKSHRSYSCQVTHEGSTVEKTVAPTECS
modifications: toxophore-linker on Cys (via S); toxophore-linker on Cys (via S)
B2: ADC of Example 80 (antibody)
heavy: EVQLLESGGGLVQPGGSLRLSCAASGFTFSNAWMSWVRQAPGKGLEWVSYISSSGSTIYYADSVKGRFTISRDNSKNTLYLQMNSLRAEDTAVYYCAREGLWAFDYWGQGTLVTVSS[in this place human IgG1 constant region]
light: ESVLTQPPSVSGAPGQRVTISCTGSSSNIGAGYVVHWYQQLPGTAPKLLIYDNNKRPSGVPDRFSGSKSGTSASLAISGLRSEDEADYYCAAWDDRLNGPVFGGGTKLTVLGQPKAAPSVTLFPPSSEELQANKATLVCLISDFYPGAVTVAWKADSSPVKAGVETTTPSKQSNNKYAASSYLSLTPEQWKSHRSYSCQVTHEGSTVEKTVAPTECS
modifications: toxophore-linker on Cys (via S); toxophore-linker on Cys (via S)
B3: ADC of Example 81 (antibody)
heavy: EVQLLESGGGLVQPGGSLRLSCAASGFTFSNAWMSWVRQAPGKGLEWVSYISSSGSTIYYADSVKGRFTISRDNSKNTLYLQMNSLRAEDTAVYYCAREGLWAFDYWGQGTLVTVSS[in this place human IgG1 constant region]
light: ESVLTQPPSVSGAPGQRVTISCTGSSSNIGAGYVVHWYQQLPGTAPKLLIYDNNKRPSGVPDRFSGSKSGTSASLAISGLRSEDEADYYCAAWDDRLNGPVFGGGTKLTVLGQPKAAPSVTLFPPSSEELQANKATLVCLISDFYPGAVTVAWKADSSPVKAGVETTTPSKQSNNKYAASSYLSLTPEQWKSHRSYSCQVTHEGSTVEKTVAPTECS
modifications: toxophore-linker on Lys (via NH); toxophore-linker on Lys (via NH)
B4: ADC of Example 68 (antibody)
heavy: EVQLLESGGGLVQPGGSLRLSCAASGFTFSNAWMSWVRQAPGKGLEWVSYISSSGSTIYYADSVKGRFTISRDNSKNTLYLQMNSLRAEDTAVYYCAREGLWAFDYWGQGTLVTVSS[in this place human IgG1 constant region]
light: ESVLTQPPSVSGAPGQRVTISCTGSSSNIGAGYVVHWYQQLPGTAPKLLIYDNNKRPSGVPDRFSGSKSGTSASLAISGLRSEDEADYYCAAWDDRLNGPVFGGGTKLTVLGQPKAAPSVTLFPPSSEELQANKATLVCLISDFYPGAVTVAWKADSSPVKAGVETTTPSKQSNNKYAASSYLSLTPEQWKSHRSYSCQVTHEGSTVEKTVAPTECS
modifications: toxophore-linker on Cys (via S); toxophore-linker on Cys (via S)
B5: ADC of Example 28 (antibody)
heavy: QVELLESGGGLVQPGGSLRLSCAASGFTFSNAWMSWVRQAPGKGLEWVSYISSSGSTIYYADSVKGRFTISRDNSKNTLYLQMNSLRAEDTAVYYCAREGLWAFDYWGQGTLVTVSS[in this place human IgG1 constant region]
light: DIVLTQPPSASGTPGQRVTISCTGSSSNIGAGYVVHWYQQLPGTAPKLLIYDNNKRPSGVPDRFSGSKSGTSASLAISGLRSEDEADYYCAAWDDRLNGPVFGGGTKLTVLGQPKAAPSVTLFPPSSEELQANKATLVCLISDFYPGAVTVAWKGDSSPVKAGVETTTPSKQSNNKYAASSYLSLTPEQWKSHRSYSCQVTHEGSTVEKTVAPTECS
modifications: toxophore-linker on Cys (via S); toxophore-linker on Cys (via S)
B6: ADC of Example 32 (antibody)
heavy: QVELLESGGGLVQPGGSLRLSCAASGFTFSNAWMSWVRQAPGKGLEWVSYISSSGSTIYYADSVKGRFTISRDNSKNTLYLQMNSLRAEDTAVYYCAREGLWAFDYWGQGTLVTVSS[in this place human IgG1 constant region]
light: DIVLTQPPSASGTPGQRVTISCTGSSSNIGAGYVVHWYQQLPGTAPKLLIYDNNKRPSGVPDRFSGSKSGTSASLAISGLRSEDEADYYCAAWDDRLNGPVFGGGTKLTVLGQPKAAPSVTLFPPSSEELQANKATLVCLISDFYPGAVTVAWKGDSSPVKAGVETTTPSKQSNNKYAASSYLSLTPEQWKSHRSYSCQVTHEGSTVEKTVAPTECS
modifications: toxophore-linker on Cys (via S); toxophore-linker on Cys (via S)
B7: ADC of Example 84 (antibody)
heavy: EVQLLESGGGLVQPGGSLRLSCAASGFTFSNAWMSWVRQAPGKGLEWVSYISSSGSTIYYADSVKGRFTISRDNSKNTLYLQMNSLRAEDTAVYYCAREGLWAFDYWGQGTLVTVSS[in this place human IgG1 constant region]
light: ESVLTQPPSVSGAPGQRVTISCTGSSSNIGAGYVVHWYQQLPGTAPKLLIYDNNKRPSGVPDRFSGSKSGTSASLAISGLRSEDEADYYCAAWDDRLNGPVFGGGTKLTVLGQPKAAPSVTLFPPSSEELQANKATLVCLISDFYPGAVTVAWKADSSPVKAGVETTTPSKQSNNKYAASSYLSLTPEQWKSHRSYSCQVTHEGSTVEKTVAPTECS
modifications: toxophore-linker on Cys (via S); toxophore-linker on Cys (via S)
B8: ADC of Example 54 (antibody)
heavy: EVQLLESGGGLVQPGGSLRLSCAASGFTFSNAWMSWVRQAPGKGLEWVSYISSSGSTIYYADSVKGRFTISRDNSKNTLYLQMNSLRAEDTAVYYCAREGLWAFDYWGQGTLVTVSS[in this place human IgG1 constant region]
light: ESVLTQPPSVSGAPGQRVTISCTGSSSNIGAGYVVHWYQQLPGTAPKLLIYDNNKRPSGVPDRFSGSKSGTSASLAISGLRSEDEADYYCAAWDDRLNGPVFGGGTKLTVLGQPKAAPSVTLFPPSSEELQANKATLVCLISDFYPGAVTVAWKADSSPVKAGVETTTPSKQSNNKYAASSYLSLTPEQWKSHRSYSCQVTHEGSTVEKTVAPTECS
modifications: toxophore-linker on Cys (via S); toxophore-linker on Cys (via S)
B9: ADC of Example 33 (antibody)
heavy: QVELLESGGGLVQPGGSLRLSCAASGFTFSNAWMSWVRQAPGKGLEWVSYISSSGSTIYYADSVKGRFTISRDNSKNTLYLQMNSLRAEDTAVYYCAREGLWAFDYWGQGTLVTVSS[in this place human IgG1 constant region]
light: DIVLTQPPSASGTPGQRVTISCTGSSSNIGAGYVVHWYQQLPGTAPKLLIYDNNKRPSGVPDRFSGSKSGTSASLAISGLRSEDEADYYCAAWDDRLNGPVFGGGTKLTVLGQPKAAPSVTLFPPSSEELQANKATLVCLISDFYPGAVTVAWKGDSSPVKAGVETTTPSKQSNNKYAASSYLSLTPEQWKSHRSYSCQVTHEGSTVEKTVAPTECS
modifications: toxophore-linker on Cys (via S); toxophore-linker on Cys (via S)
B10: ADC of Example 51 (antibody)
heavy: EVQLLESGGGLVQPGGSLRLSCAASGFTFSNAWMSWVRQAPGKGLEWVSYISSSGSTIYYADSVKGRFTISRDNSKNTLYLQMNSLRAEDTAVYYCAREGLWAFDYWGQGTLVTVSS[in this place human IgG1 constant region]
light: ESVLTQPPSVSGAPGQRVTISCTGSSSNIGAGYVVHWYQQLPGTAPKLLIYDNNKRPSGVPDRFSGSKSGTSASLAISGLRSEDEADYYCAAWDDRLNGPVFGGGTKLTVLGQPKAAPSVTLFPPSSEELQANKATLVCLISDFYPGAVTVAWKADSSPVKAGVETTTPSKQSNNKYAASSYLSLTPEQWKSHRSYSCQVTHEGSTVEKTVAPTECS
modifications: toxophore-linker on Cys (via S); toxophore-linker on Cys (via S)
B11: ADC of Example 82 (antibody)
heavy: EVQLLESGGGLVQPGGSLRLSCAASGFTFSNAWMSWVRQAPGKGLEWVSYISSSGSTIYYADSVKGRFTISRDNSKNTLYLQMNSLRAEDTAVYYCAREGLWAFDYWGQGTLVTVSS[in this place human IgG1 constant region]
light: ESVLTQPPSVSGAPGQRVTISCTGSSSNIGAGYVVHWYQQLPGTAPKLLIYDNNKRPSGVPDRFSGSKSGTSASLAISGLRSEDEADYYCAAWDDRLNGPVFGGGTKLTVLGQPKAAPSVTLFPPSSEELQANKATLVCLISDFYPGAVTVAWKADSSPVKAGVETTTPSKQSNNKYAASSYLSLTPEQWKSHRSYSCQVTHEGSTVEKTVAPTECS
modifications: toxophore-linker on Cys (via S); toxophore-linker on Cys (via S)
B12: ADC of Example 56 (antibody)
heavy: EVQLLESGGGLVQPGGSLRLSCAASGFTFSNAWMSWVRQAPGKGLEWVSYISSSGSTIYYADSVKGRFTISRDNSKNTLYLQMNSLRAEDTAVYYCAREGLWAFDYWGQGTLVTVSS[in this place human IgG1 constant region]
light: ESVLTQPPSVSGAPGQRVTISCTGSSSNIGAGYVVHWYQQLPGTAPKLLIYDNNKRPSGVPDRFSGSKSGTSASLAISGLRSEDEADYYCAAWDDRLNGPVFGGGTKLTVLGQPKAAPSVTLFPPSSEELQANKATLVCLISDFYPGAVTVAWKADSSPVKAGVETTTPSKQSNNKYAASSYLSLTPEQWKSHRSYSCQVTHEGSTVEKTVAPTECS
modifications: toxophore-linker on Cys (via S); toxophore-linker on Cys (via S)
B13: ADC of Example 83 (antibody)
heavy: EVQLLESGGGLVQPGGSLRLSCAASGFTFSNAWMSWVRQAPGKGLEWVSYISSSGSTIYYADSVKGRFTISRDNSKNTLYLQMNSLRAEDTAVYYCAREGLWAFDYWGQGTLVTVSS[in this place human IgG1 constant region]
light: ESVLTQPPSVSGAPGQRVTISCTGSSSNIGAGYVVHWYQQLPGTAPKLLIYDNNKRPSGVPDRFSGSKSGTSASLAISGLRSEDEADYYCAAWDDRLNGPVFGGGTKLTVLGQPKAAPSVTLFPPSSEELQANKATLVCLISDFYPGAVTVAWKADSSPVKAGVETTTPSKQSNNKYAASSYLSLTPEQWKSHRSYSCQVTHEGSTVEKTVAPTECS
modifications: toxophore-linker on Cys (via S); toxophore-linker on Cys (via S)

The experiment deals with T1, C4.4a on A549 cells transfected with …. The experiment in a line: cell-based or functional assay.
Consider B1, for which the “IC50 [nM] A549: C4.4a (cell viability)” value was 0.052 nM.

As to B2, the “IC50 [nM] A549: C4.4a (cell viability)” value turned out to be 3 nM.

Consider B3, for which the “IC50 [nM] A549: C4.4a (cell viability)” value came out at 0.045 nM.

Take B4: the “IC50 [nM] A549: C4.4a (cell viability)” value is 0.02 nM.

B5: the “IC50 [nM] A549: C4.4a (cell viability)” value stood at 0.062 nM.

For the molecule B6, the “IC50 [nM] A549: C4.4a (cell viability)” value came out at 0.035 nM.

B7: the “IC50 [nM] A549: C4.4a (cell viability)” value was determined as 0.13 nM.

Take B8: the “IC50 [nM] A549: C4.4a (cell viability)” value was found to be 0.074 nM.

Turning to B9, the “IC50 [nM] A549: C4.4a (cell viability)” value worked out at 0.037 nM.

As to B10, the “IC50 [nM] A549: C4.4a (cell viability)” value worked out at 0.044 nM.

With B11, the “IC50 [nM] A549: C4.4a (cell viability)” value amounted to 0.06 nM.

For B12, the “IC50 [nM] A549: C4.4a (cell viability)” value is 0.037 nM.

B13: the “IC50 [nM] A549: C4.4a (cell viability)” value was 0.27 nM.
